Hit rate of the full screen: of about 52,000 compounds, about 1,700 (3.3%) were called active. Rule as the data show it: active = survival mostly below about 52% (no sharp cut-off); inactive = mostly above about 56%. The list shows a part of the results.

In this test the test system is Wild type. Briefly: growth inhibition of S. aureus wild type versus tarO mutant, primary screen, teichoic acid synthesis inhibitors, RN4220, OD600 (AID 463173). The conditions noted are these: S. aureus RN4220 wild type/DeltatarO growth, OD600, 18 h, active compounds read low, screened at 18.75 µg/mL (by protocol).
Take `COc1cc(Nc2nc(SCc3ccccc3Cl)nc3ccccc23)cc(OC)c1`: the survival was inactive: 95%.

Turning to `COc1cccc(NC(=O)c2oc3ccccc3c2NC(=O)C2CCCCC2)c1`, the survival is inactive: 64%.

For the compound `CCOCc1cc(CN2CCN(c3ccccc3OC)CC2)c(O)c2ncccc12`, the survival is inactive: 88%.

For `CCOc1ccc(NC(=O)CSc2oc(-c3ccccc3)nc2S(=O)(=O)c2ccc(Cl)cc2)cc1`, the survival is inactive: 178%.

Take `COC(=O)c1cc(NC(=O)c2cc3sccc3n2Cc2ccc(Cl)cc2)cc(C(=O)OC)c1`: the survival is inactive: 89%.

As to `S=c1sc2ccccc2n1CN1CCCCC1`, the survival was inactive: 102%.

Consider `Cc1cc(N2CCC(C(=O)N(CC(C)C)CC(C)C)CC2)n2nc(C)c(-c3ccc(Cl)cc3)c2n1`, for which the survival is inactive: 91%.

In the case of `O=C1NC(NS(=O)(=O)c2ccccc2)(C(F)(F)F)C(=O)N1c1ccc(F)cc1` (stereo not drawn), the survival was inactive: 76%.

In the case of `COc1ccccc1NC(=O)Cn1c(=O)c(CNc2ccccc2)cc2cc(OC)c(OC)cc21`, the survival is inactive: 101%.

`O=C(Cc1ccccc1)N=Nc1c(O)[nH]c2ccccc12`: the survival was inactive: 110%.

For `Fc1ccc(-n2ncc3c(Nc4cccc(Cl)c4)ncnc32)cc1`, the survival is inactive: 63%.

In the case of `CSc1ncc(Cl)c(C(=O)N(Cc2ccc(C)cc2)C2CCS(=O)(=O)C2)n1` (stereo not drawn), the survival was inactive: 88%.

Take `COc1ccccc1C1C=C(c2ccc(C(C)C)cc2)Nc2nnnn21` (stereo not drawn): the survival was inactive: 63%.

On to `Cc1cc(C)cc(OCc2cc(=O)n3c(-c4ccccc4)csc3n2)c1`, for which the survival is inactive: 88%.

In the case of `Cc1cccc(CNC(=O)c2ccc3c(c2)c(C)c(C)n3Cc2ccccc2)c1`, the survival is inactive: 80%.

As for `O=C(c1cnn(-c2ccc(F)cc2)c1-n1cccc1)N1CCN(c2ccc(Cl)cc2)CC1`, the survival is inactive: 63%.

For `CCOC(=O)c1ccc(NC(=O)NC2CC3CCC(C2)N3Cc2nnnn2Cc2ccco2)cc1` (stereo not drawn), the survival was inactive: 103%.

For the compound `O=S(=O)(c1ccccc1)c1nnn2c1nc(NCc1ccc(Cl)cc1)c1sccc12`, the survival was inactive: 88%.

Take `O=C1CCc2cc(S(=O)(=O)NCc3ccccc3Cl)cc3c2N1CC3`: the survival was inactive: 53%.

With `COc1cc(OC)cc(-c2nc3nc(C)c(CCC(=O)Nc4ccc(C)cc4C)c(C)n3n2)c1`, the survival is inactive: 93%.

Take `O=C(CCn1ccc2cc(S(=O)(=O)N3CCCC3)ccc21)NCc1ccccc1F`: the survival is inactive: 83%.

As for `COc1cccc(NC(=O)Cn2cc(S(=O)(=O)Cc3ccccc3F)c3ccccc32)c1`, the survival is inactive: 70%.

As to `Cn1c(CC(=O)Nc2ccccc2)n[nH]c1=S`, the survival was inactive: 100%.

With `CCOC(=O)N1CCN(Cc2nc3cc(NC(=O)c4cccc(C)c4)ccc3n2C(C)C)CC1`, the survival is inactive: 91%.

Regarding `Cc1ccc(S(=O)(=O)c2nnn3c2nc(NCc2cccs2)c2sccc23)cc1`, the survival was inactive: 127%.

For `CCn1nc(C)c2c(-c3ccccc3)cc(=O)n(C(C)C(=O)NCc3ccccc3OC)c21` (stereo not drawn), the survival is inactive: 70%.

With `Cc1cc(OC(C)C(=O)N(Cc2ccc(N(C)C)cc2)Cc2ccco2)ccc1Cl` (stereo not drawn), the survival is inactive: 81%.

Turning to `CC1CCCN(CCCNC(=O)c2ccc3c(c2)N(Cc2ccc(Cl)cc2)C(=O)c2ccccc2S3(=O)=O)C1` (stereo not drawn), the survival is inactive: 142%.

On to `Cc1ccccc1C(=O)Nc1cccc(OCc2cc(=O)n3cccc(C)c3n2)c1`, for which the survival is inactive: 90%.

For the compound `CCc1ccc(NC(=O)CN2C(=O)CSc3ccc(S(=O)(=O)N(C)C)cc32)cc1`, the survival is inactive: 69%.

On to `CCOc1ccc(-c2ncccc2O)cc1`, for which the survival was inactive: 106%.

Turning to `Cc1ccc(C)c(NC(=O)Cn2cc(S(=O)(=O)Cc3cccc(Cl)c3)c3ccccc32)c1`, the survival is inactive: 73%.

On to `O=C(NCc1ccccc1)c1ccc2c(c1)CCN2S(=O)(=O)c1ccc(Cl)cc1`, for which the survival was inactive: 88%.

In the case of `CCOc1ccc(NC(=O)N2CCN(c3ccc(Cl)c(Cl)c3)CC2)cc1`, the survival was inactive: 120%.

As for `O=C(NCc1cccnc1)c1cn(C2CC2)c2cc(N3CCN(C(=O)c4cccc(Cl)c4)CC3)c(F)cc2c1=O`, the survival is active: 0%.

`CCn1cc(C(=O)NCCc2ccc(OC)c(OC)c2)c(=O)c2cc(S(=O)(=O)N(C)C3CCCCC3)ccc21`: the survival is inactive: 67%.

With `COc1ccc2cc3c(N)nn(C(=O)c4ccccc4Cl)c3nc2c1`, the survival was inactive: 74%.

On to `COc1ccc(-c2noc(CN(C(=O)C(C)Oc3ccc(C)cc3)C(C)C)n2)cc1` (stereo not drawn), for which the survival was inactive: 77%.

In the case of `CC(C)Oc1ccc(C(=O)N(Cc2ccc(N(C)C)cc2)C2CCS(=O)(=O)C2)cc1` (stereo not drawn), the survival was inactive: 79%.

Regarding `CCc1ccc(NCc2cc3ccc(OC)cc3n(CC(=O)Nc3c(C)cc(C)cc3C)c2=O)cc1`, the survival was inactive: 81%.

Consider `COc1ccc(Cl)cc1NC(=O)Cn1ccn(-c2cc(C)cc(C)c2)c(=O)c1=O`, for which the survival was inactive: 79%.

In the case of `Cn1nnc2c(N3CCN(c4ccc(F)cc4)CC3)ncnc21`, the survival is inactive: 80%.

As to `CCOC(=O)C1CCN(C2CC(=O)N(c3ccc(NC(C)=O)cc3)C2=O)CC1` (stereo not drawn), the survival was inactive: 106%.

As for `N#Cc1cc2c(nc1SCC(=O)N1CCOCC1)CCC2`, the survival is inactive: 102%.

As to `CCOc1cccc(CNC(=O)c2ccc(N3CCCC3)c(NC(=O)NCc3ccccc3)c2)c1`, the survival is inactive: 77%.

In the case of `Cc1ccccc1CNC(=O)CCS(=O)(=O)c1cc2c3c(c1)CCN3C(=O)CC2`, the survival was inactive: 132%.

Consider `Cc1ccc(Nc2sc(C(=O)c3ccccc3)c(N)c2S(=O)(=O)c2ccccc2)cc1Cl`, for which the survival is inactive: 101%.

In the case of `Fc1ccc(-n2ncc3c(Nc4ccc5c(c4)OCCO5)ncnc32)cc1`, the survival was inactive: 89%.

Turning to `Cc1ccc(N2CCN(C(=O)c3cc4cc5ccc(C)cc5nc4s3)CC2C)cc1` (stereo not drawn), the survival was inactive: 85%.

With `FC(F)(F)c1cccc(C(c2nnnn2Cc2ccccc2)N(Cc2ccco2)CC2CCCO2)c1` (stereo not drawn), the survival was inactive: 140%.

`Cc1nc2ccccn2c1C(=O)OCC#N`: the survival is inactive: 108%.

With `Cc1cc(S(=O)(=O)N(C)CCc2ccccc2)ccc1-n1cnnn1`, the survival is inactive: 99%.

As to `COc1ccccc1N1CCN(C(=O)CCS(=O)(=O)c2ccc3c(c2)oc(=O)n3C)CC1`, the survival was inactive: 68%.

Turning to `CCc1ccc(CNC(=O)Cn2nc(-c3ccc(C)cc3)ccc2=O)cc1`, the survival was inactive: 124%.

Regarding `CCOC(=O)N1CCN(C(=O)c2cnn3c(C(F)(F)F)cc(-c4cccc(OC)c4)nc23)CC1`, the survival was inactive: 96%.

For `COc1ccc(O)c(C2=Nc3ccccc3N=C(c3ccccc3)C2)c1`, the survival is inactive: 100%.

`COc1cc(C(=O)NCCc2csc(-c3ccc(Cl)cc3)n2)cc(OC)c1OC`: the survival was inactive: 67%.

For `COc1ccc(-c2noc(CSc3nnc(C)n3-c3cccc(C)c3)n2)cc1`, the survival is inactive: 91%.

On to `Cc1cc(C=C(C#N)C#N)c(C)n1-c1ccccc1`, for which the survival was inactive: 114%.

Take `COc1ccccc1NC(=O)c1oc2ccccc2c1NC(=O)Cc1ccccc1`: the survival was inactive: 80%.

Turning to `CCOC(=O)c1nc(Nc2ccc(C(=O)OC(C)C)cc2)c2ccccc2n1`, the survival is inactive: 93%.

With `CC(O)Cc1nsc(NC(=O)c2cccs2)n1` (stereo not drawn), the survival was inactive: 108%.

Turning to `CSc1nnc(C2CCCN(CC(=O)NC3CCCCC3C)C2)n1C` (stereo not drawn), the survival was inactive: 124%.

Turning to `CNC(=O)c1ccc2c(c1)N(Cc1cc(C)ccc1C)C(=O)c1ccccc1S2`, the survival was inactive: 58%.

In the case of `CCn1c(=O)c(C(=O)Nc2ccc(Cl)cn2)c(O)c2ccccc21`, the survival is inactive: 104%.

Take `O=C(CN1C(=O)CC(c2ccccc2)=Nc2ccccc21)Nc1ccc(Br)cc1`: the survival was inactive: 146%.

Turning to `COc1ccc(CNC(=O)c2ccc(-c3nc(CSc4ccc(C)cc4)c(C)o3)cc2)c(OC)c1`, the survival was active: 1%.

With `Cc1cccc(CCNC(=O)c2cc3c(s2)-c2c(C)cccc2OC3)c1`, the survival is inactive: 100%.

With `O=C(NCCc1ccccc1)c1ccc(Nc2nc3ccccc3n3nnnc23)cc1`, the survival is inactive: 71%.

`Cc1ccc2c(c1)N(C(=O)Nc1cccc3c1CCCC3)CCO2`: the survival is inactive: 89%.

For `CCCN1CCN(C(=O)Cn2c(-c3cccs3)cc3cc(F)ccc32)CC1`, the survival is inactive: 85%.

For `CCOC(=O)C1=C(C)N(C2CCCCC2)C(=O)C1`, the survival is inactive: 109%.

Consider `CCOC(=O)c1c(NC(=O)CSc2cn(CCNC(=O)c3ccc(OC)cc3)c3ccccc23)sc2c1CCCC2`, for which the survival is inactive: 70%.

Turning to `COc1ccc(C2c3c(n(C)c4ccccc34)C(=O)N2CC(=O)Nc2cccc(Cl)c2)cc1` (stereo not drawn), the survival was inactive: 89%.

Regarding `Cc1nc2ccc(S(=O)(=O)N(CC(=O)Nc3ccc(F)cc3)Cc3ccccc3)cc2s1`, the survival is inactive: 113%.

In the case of `COC(=O)c1sc2cccc(F)c2c1S(=O)(=O)N1CCN(c2cccc(C)c2)C(C)C1` (stereo not drawn), the survival is inactive: 87%.

Turning to `COc1ccc(CCNc2ncnc3c2nnn3C)cc1`, the survival is inactive: 113%.

On to `CC1CCc2c(sc(NC(=O)CCCOc3ccccc3)c2C(N)=O)C1` (stereo not drawn), for which the survival is inactive: 91%.

As to `CCN1CCN(C(C)C(=O)NCc2ccc(OC)cc2)CC1` (stereo not drawn), the survival is inactive: 92%.

As to `CCCOC(=O)c1c(NC(=O)c2cc3ccccc3c(=O)o2)sc2c1CCC(C)C2` (stereo not drawn), the survival is inactive: 105%.

For `CCOc1ccc(-n2nc3ccc(NC(=O)Cc4ccccc4)cc3n2)cc1`, the survival was inactive: 80%.

In the case of `CC(C)(C)OC(=O)N1CCC(c2c(C(=O)N3CCN(C(=O)c4ccco4)CC3)cnn2-c2ccc(F)cc2F)CC1`, the survival is inactive: 129%.

`CCc1cccc(NC(=O)CN(C)S(=O)(=O)c2ccc3[nH]c4c(c3c2)CCCC4)c1`: the survival was inactive: 73%.

For the compound `Cc1cc(-c2ccc(C)c(S(=O)(=O)N3CCOc4ccc(Cl)cc43)c2)on1`, the survival was inactive: 127%.

Take `CCc1ccccc1-n1c(N)c(C(=O)OC)c2nc3ccccc3nc21`: the survival was inactive: 75%.

On to `COc1ccc(-c2cn3c(C)c(C(=O)Nc4cc(C)cc(C)c4)sc3n2)cc1`, for which the survival is inactive: 73%.

As for `CCOC(=O)c1cnc2c(Cl)cc(Cl)cc2c1Nc1ccccc1OC`, the survival was inactive: 65%.

On to `COC(=O)c1ccc(Cn2nnc3c(=O)[nH]c(C4CCCN(S(=O)(=O)c5ccccc5Cl)C4)nc32)cc1` (stereo not drawn), for which the survival was inactive: 78%.

Values taken from PubChem BioAssay AID463173 (ICCB-Longwood Screening Facility, Harvard Medical School, 2010).
